Assay results from the supplement of paper PMC12217912.
The other results are listed elsewhere or left out. The full chains were built here from the parent and the listed change. Inactive controls read about 0.05.

B1: TEV protease; numbered along this chain (parent)
chain: MGESLFKGPRDYNPISSSICHLTNESDGHTTSLYGIGFGPFIITNKHLFRRNNGTLVVQSLHGVFKVKDTTTLQQHLVDGRDMIIIRMPKDFPPFPQKLKFREPQREERICLVTTNFQTKSMSSMVSDTSCTFPSGDGIFWKHWIQTKDGQCGSPLVSTRDGFIVGIHSASNFTNTNNYFTSVPKNFMELLTNQEAQQWVSGWRLNADSVLWGGHKVFMVKPEEPFQPVKEATQL

Variants of: B1
Test: raw area under fraction-flipped curve 0-4 h after induction (AUC4h, not background-subtracted), DNA-recorder readout of cleavage of the substrate (dimensionless); higher = more cleavage of the substrate by the protease variant
Conditions: temperature: 34 °C; time window: 0-4 h after rhamnose induction
Procedure: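 In vivo DNA recorder in E. coli TOP10(DE3) ΔrhaA at 34 °C. Each TEVp single-site mutant (parent TEVp 0) is paired with a single-site variant of the 7-mer TEVs (canonical ENLYFQ|S). The substrate sits between flexible linkers in a Bxb1-sfGFP-TEVs-SsrA fusion, so cleavage stabilises Bxb1 and speeds flipping of a recombination array, read by NGS. The value is the raw area under the fraction-flipped curve over 0-4 h after rhamnose induction (AUC4h), with ≥20 reads per time point. It is not background-subtracted; inactive controls average about 0.047.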
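Also: Bxb1 expression induced with 0.2% (w/v) L-rhamnose at OD600 near 0.5, cultures sampled hourly, flipped fraction per protease–substrate barcode pair counted by paired-end Illumina sequencing.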

Row | Variant | area with substrate ENLYFAS | area with substrate ENLYFHS | area with substrate ENLYFNS | area with substrate ENLYFPS | area with substrate ENLYFYS | area with substrate ENLYFCS | area with substrate ENLYFDS | area with substrate ENLYFES | area with substrate ENLYFFS | area with substrate ENLYFGS | area with substrate ENLYFIS | area with substrate ENLYFLS | area with substrate ENLYFMS | area with substrate ENLYFRS | area with substrate ENLYFSS | area with substrate ENLYFTS | area with substrate ENLYFVS | area with substrate ENLYFWS | area with substrate ENLYFKS
1 | E189S | 0.0614 | 0.0681 | 0.0796 | 0.048 | 0.0584 |  |  |  |  |  |  |  |  |  |  |  |  |  | 
2 | F65Y |  |  | 0.063 | 0.0662 |  | 0.0623 | 0.0365 | 0.0651 | 0.0976 | 0.0366 | 0.0662 | 0.103 | 0.0701 | 0.0647 | 0.0733 | 0.0361 | 0.0468 |  | 
3 | E3I | 0.0449 |  |  | 0.0499 |  | 0.0541 | 0.0529 |  | 0.0742 |  | 0.0608 |  | 0.0761 | 0.0547 | 0.055 | 0.0636 | 0.0377 |  | 
4 | I86A | 0.0463 | 0.0551 | 0.0676 | 0.0608 | 0.0562 | 0.0554 |  |  | 0.0601 |  | 0.0524 | 0.0619 | 0.0456 |  |  | 0.0578 | 0.0388 | 0.0421 | 
5 | H143T | 0.0497 | 0.0573 |  | 0.0568 |  | 0.0722 | 0.0587 | 0.0579 | 0.0569 |  |  |  | 0.0534 | 0.0507 |  |  |  | 0.0611 | 0.0664
6 | H143M | 0.0587 |  | 0.0513 |  |  |  | 0.0559 |  | 0.0585 | 0.054 | 0.051 | 0.0521 | 0.0686 | 0.0665 |  | 0.0499 | 0.0567 | 0.0879 | 0.0716
7 | K90Y | 0.0617 | 0.0483 |  |  | 0.0242 |  |  | 0.0524 |  |  | 0.0524 |  | 0.0619 | 0.0269 |  |  |  | 0.0514 | 
8 | S171P | 0.0503 | 0.05 | 0.057 | 0.0624 | 0.0764 | 0.0371 |  | 0.0562 | 0.0566 | 0.0675 | 0.056 |  | 0.0628 | 0.0596 | 0.056 | 0.0559 | 0.075 | 0.0495 | 
9 | A196Y | 0.061 | 0.0585 |  |  |  | 0.0656 | 0.0502 | 0.0679 | 0.0882 |  | 0.0509 | 0.0622 |  |  |  |  |  | 0.0449 | 0.0657
10 | H215N | 0.0879 | 0.0496 | 0.0539 | 0.0565 |  |  |  | 0.0552 | 0.0692 | 0.0642 | 0.0488 | 0.0685 |  |  |  | 0.0699 | 0.0554 | 0.0558 | 0.0541
11 | G213Q |  |  | 0.0657 |  |  | 0.0621 |  | 0.0632 |  |  |  | 0.0673 |  |  |  | 0.0614 | 0.0657 |  | 
12 | S209L | 0.0412 |  |  |  | 0.0792 |  |  |  | 0.0637 |  | 0.0416 | 0.073 |  | 0.0605 | 0.0732 |  |  |  | 0.0496
13 | F49E | 0.0514 | 0.0414 | 0.0552 | 0.0574 | 0.0564 | 0.0645 | 0.0562 | 0.0547 | 0.0684 |  | 0.0533 |  | 0.0368 | 0.0626 | 0.0586 | 0.051 | 0.0541 | 0.0614 | 0.0546
14 | Y12F | 0.0674 |  | 0.0601 | 0.0627 |  | 0.0523 | 0.0593 | 0.0564 | 0.0611 |  | 0.0536 |  | 0.0669 | 0.0658 | 0.0395 | 0.0635 | 0.0522 | 0.0565 | 
15 | T147C | 0.0565 |  | 0.0814 |  | 0.0574 | 0.0317 |  |  | 0.0761 |  | 0.0624 | 0.058 | 0.0692 | 0.0633 | 0.0623 | 0.0639 |  | 0.0354 | 
16 | T70M |  | 0.0566 | 0.0696 | 0.0646 |  | 0.0413 |  | 0.0632 | 0.0661 |  | 0.0543 |  | 0.058 |  |  | 0.0714 | 0.0794 | 0.0565 | 
17 | T132W | 0.0538 | 0.0578 |  | 0.0639 | 0.0507 | 0.0509 |  | 0.0614 | 0.0764 |  | 0.0559 | 0.0594 | 0.0525 |  |  | 0.0571 |  | 0.0481 | 0.0453
18 | T55K | 0.0588 | 0.0486 | 0.076 | 0.0638 | 0.0627 | 0.0591 | 0.0576 | 0.069 | 0.0784 | 0.0677 | 0.0622 |  | 0.063 | 0.0502 |  | 0.0716 | 0.0526 | 0.0527 | 
19 | T72Y | 0.0566 | 0.0529 |  | 0.0606 | 0.0552 |  | 0.0474 | 0.0605 | 0.0762 | 0.0566 | 0.051 | 0.0613 | 0.0767 |  | 0.0618 | 0.0488 |  | 0.0538 | 0.0688
20 | Q227R | 0.053 | 0.0685 |  |  |  | 0.0596 |  |  |  |  | 0.0595 |  | 0.0656 | 0.0685 |  | 0.0541 |  | 0.065 | 
21 | Q227N | 0.0556 | 0.0503 |  | 0.0576 |  | 0.079 | 0.0657 | 0.0382 | 0.0609 |  | 0.049 |  | 0.0514 | 0.0534 |  |  | 0.0503 | 0.0574 | 0.0505
22 | I15V | 0.0444 | 0.0592 | 0.0511 | 0.0605 |  | 0.0405 |  | 0.0606 |  | 0.0727 | 0.0535 | 0.0595 | 0.0657 | 0.073 | 0.0781 | 0.0532 | 0.0613 | 0.0542 | 0.0861
23 | W141T | 0.0589 | 0.055 |  |  | 0.0728 |  | 0.056 |  | 0.057 | 0.0588 |  |  | 0.0493 |  |  |  |  |  | 0.0619
24 | K7P | 0.0686 |  | 0.0739 | 0.0614 |  | 0.0602 |  | 0.0729 |  |  | 0.0632 |  | 0.0699 | 0.0686 |  |  |  |  | 0.0661
25 | I167N | 0.045 | 0.0492 | 0.0472 | 0.0538 | 0.0478 | 0.0557 | 0.0586 | 0.0616 |  | 0.0555 | 0.045 |  | 0.0515 | 0.0521 | 0.0637 | 0.0504 | 0.0561 | 0.0485 | 0.0448
26 | R50Q | 0.0459 |  | 0.0655 | 0.0571 |  |  | 0.0626 | 0.0725 | 0.065 | 0.0689 | 0.0582 |  | 0.0915 |  | 0.0715 | 0.0636 | 0.0572 | 0.0577 | 
27 | Y179I | 0.0585 | 0.0495 |  |  |  |  | 0.059 | 0.063 | 0.0722 |  | 0.0528 |  |  |  |  | 0.0444 | 0.0567 | 0.0536 | 0.0694
28 | W203K | 0.0521 |  | 0.0387 | 0.0564 | 0.0622 | 0.0581 | 0.0782 | 0.0541 | 0.0637 | 0.0488 | 0.0601 | 0.0588 | 0.0584 |  |  | 0.0628 |  | 0.0502 | 0.0715
29 | P228D | 0.0541 |  |  | 0.0466 |  | 0.0584 | 0.0657 |  | 0.0535 |  | 0.0743 |  |  | 0.0704 | 0.0503 | 0.075 |  |  | 
